# Article PMC12136788
# The list shows a part of the results.
# T1: UNK ZnF1-3 (human, UniProt Q9C0B0 31-174)
# T1 sequence: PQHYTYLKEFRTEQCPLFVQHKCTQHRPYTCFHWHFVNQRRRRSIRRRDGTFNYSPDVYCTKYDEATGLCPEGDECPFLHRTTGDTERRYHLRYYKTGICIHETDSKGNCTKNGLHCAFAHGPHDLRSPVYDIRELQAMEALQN
# B1: chr8:112342892:112342893:+_ENSMUSG00000031731_ENSMUST00000093157|mus_mus|motif|central (ssRNA)
# RNA: GGGAGUUCUACAGUCCGACGAUCAUUAAGAUCAUUCUUGAUACAGUUGGUCAUGAGAAGAUGCACAUCUUGUCUUUCAUCGGAUAAUAGCAUUGCUCCUAAAUAGCCAAUGCGUUUGUCUGUGAAUUUUUGUGAGGCGAUUAGCAACAGAGGAUUGAGCAUCA
# B2: chr2:15737528:15737529:+_ENSG00000079785_ENST00000233084|hu_mus|FALSE|FALSE (ssRNA)
# RNA: GGGAGUUCUACAGUCCGACGAUCUUUAAUAGUUGUUUUCCCUUUCUUUCCUUCCUGUUGGUCUUUCAGAGUUUCAUACACUAUCUGGAUAACGGGAAUACUAAAUGCACCAGUUUUUCCACUUCCUGUUUCUGCAGCCAUGAGCAACAGAGGAUUGAGCAUCA
# B3: chr1:39494447:39494448:+_ENSG00000168653_ENST00000372967|hu_mus|hu_hu_hu_mus_False|8_48 (ssRNA)
# RNA: GGGAGUUCUACAGUCCGACGAUCGCACCGAGCGGCGUUCUUAUAGGGCUGUUCUGCGCUUAGGAACAUAAAGUGCCGGUCCAGGCUAAGGCCGAACUUUUUCUGUAUGUCAAGGAAAGGCAUGGCUGAUGCUCGUGCUUGUCACAACAGAGGAUUGAGCAUCA
# B4: chr17:56552419:56552420:-_ENSMUSG00000013236_ENSMUST00000086828|mus_mus|mus_mus_mus_hu_False|8_78 (ssRNA)
# RNA: GGGAGUUCUACAGUCCGACGAUCAAAAAAUACACUAUUUAAAAAAAAUGAAAUGUCAGAAAAAGAAGUUACACUGAGAGUUUUAAAAGAAAGCUGGAUUCUGGUCCCAGCCCAGUGUCCCCAGGCUGAGUGCGGAAGAGGAGCCAACAGAGGAUUGAGCAUCA
# B5: chr1:115282395:115282396:-_ENSG00000009307_ENST00000339438|hu_mus|FALSE|FALSE (ssRNA)
# RNA: GGGAGUUCUACAGUCCGACGAUCAUUAUAUUGUGAACAGUGGAAGAAAAGUCUAGCUUGCCGUUCUGAACACUGAAUGAAUCCGUAAGAGGUCAAGAGUUUUUCAAUAACCCCAGUUUCACGAAGUGCUGCUGAAGUACCAUUCAACAGAGGAUUGAGCAUCA
# B6: chr2:14037654:14037655:+_ENSMUSG00000026718_ENSMUST00000102960|mus_hu|motif|central (ssRNA)
# RNA: GGGAGUUCUACAGUCCGACGAUCAUGACCCUUAUUUAAUACGUUGCUUACUUCACUAGCAAAAUCUCUUGAACAUACUUCGGAAUGAAAAAUUUUGCCACAGUUUGAUACACAUGCUCCUAGAAGAGUCAAAGCCUGCAUAGCCAACAGAGGAUUGAGCAUCA
# B7: chr19:2271408:2271409:+_ENSG00000104904_ENST00000602676|hu_hu|motif|central (ssRNA)
# RNA: GGGAGUUCUACAGUCCGACGAUCGAUCUUCAGGGGUGGGUGAGGGGCAUCGGAGCACCACCGAGGCCCCGGACCCGGGUUACGGCAGCAGUGGAGGGAGACCCUGGAACUCUCACUGCUGCUGCCGCCGCGGCUGUGCAGGCUCAACAGAGGAUUGAGCAUCA
# B8: chr5:40767622:40767623:-_ENSG00000132356_ENST00000397128|hu_mus|hu_hu_hu_mus_False|38_108 (ssRNA)
# RNA: GGGAGUUCUACAGUCCGACGAUCAUCUUUGAUUGUGGCCCUCUUCAUGGGAUCCACCUGCAGCAUAUGUUUCAAAAGGCUGAUUACUGAAGGGUUUAAAUAUUGAGGGGUAUAAAAGAUCCCAUCACAUAUCUUCUUAAAAAGCAACAGAGGAUUGAGCAUCA
# B9: chr2:152838176:152838177:-_ENSMUSG00000027472_ENSMUST00000028972|mus_hu|FALSE|FALSE (ssRNA)
# RNA: GGGAGUUCUACAGUCCGACGAUCUUCAAUCAUUUCCUUUGUCUCAGGGUGAGGCAUCUUGAUAAACAUGUUCCCGAAGCAAACCAUCACAUCUUCAGAGAGGCUGAGAUCCUUCUGCAGGGCCCUCAGGCCCUCUCGAUUCUGCAACAGAGGAUUGAGCAUCA
# B10: 8059474_8059594_222_3pUTR_ENSMUSG00000022142_ENSMUST00000163765|mouse|control|control (ssRNA)
# RNA: GGGAGUUCUACAGUCCGACGAUCGACACCAUGAGCAGCUCAGAAAGGUCCGGGUACAUGCGGUCUUCUUGCAACUGUCGAUCGAUAAGCCUCCCCGCGUUUUCCAAAGCUUCCUGCAGGGAGGCGGCGGCCGACGUAGAGGCCCAACAGAGGAUUGAGCAUCA
# B11: chr1:23395093:23395094:+_ENSG00000004487_ENST00000356634|perfect_dup|motif|central (ssRNA)
# RNA: GGGAGUUCUACAGUCCGACGAUCUGCCUGGCCAAGGGAUACAGGUUUAUUAUUGAGGACGUUGAAGUCUAACUGGUGACGGAGGUAAGAAGUGGCUUCUAGCAACCGGUUAAAUUCUUGUUCUACCAUUUCAUCUUUUUCUUUCAACAGAGGAUUGAGCAUCA
# B12: chr3:100860513:100860514:-_ENSMUSG00000027864_ENSMUST00000102694|mus_hu|FALSE|FALSE (ssRNA)
# RNA: GGGAGUUCUACAGUCCGACGAUCGAUGAGAACAGAGUAGCGUGGCGACUUAAUAUUCUUGGAAGAUACUUUGCAAGUCAUCUCAAAUGUAUUUCCGGCAGCAAAGAAAGGCUUUGGCUGCCUCGCCUUCACCACAAGCACGGACAACAGAGGAUUGAGCAUCA
# B13: chr1:244855233:244855234:+_ENSG00000121644_ENST00000302550|hu_mus|FALSE|FALSE (ssRNA)
# RNA: GGGAGUUCUACAGUCCGACGAUCCAUCAGAUGGUAGGCGUUGCCCUUAUACUCUUUCCCCAGUUCUUCUACAAUUUUCUCUAUAUCAUCUUCUAGAAAGUCCGUACUUCCUAGAACAACAGCUUCUUUAAAUUUAAAUGUUUCCAACAGAGGAUUGAGCAUCA
# B14: 20112859_20113845_501_CDS_ENSG00000099901_ENST00000331821|human|control|control (ssRNA)
# RNA: GGGAGUUCUACAGUCCGACGAUCUGUUUUGAAUUUCUGUGCAUUCUCAGCAUUCAGGAAGCGGAUGGCCAGCAGCUCUGGCUUGGGGCACUCGUCGGCGAAGUCAGCGUGGGUGUUCCAGACCCAGGCACGGUCGCUACCUGCCAACAGAGGAUUGAGCAUCA
# B15: chr10:90581586:90581587:-_ENSMUSG00000061904_ENSMUST00000076694|mus_mus|motif|central (ssRNA)
# RNA: GGGAGUUCUACAGUCCGACGAUCAGCUUCCAUAGGAGCCAGGGCAAUGUCAGCGAAGAAUUCAGCACUGGCAGAAGAAGCGGAAUACAGUGAUGUGCGCCACAGGUAGGUGUUUUCCUCACCAAGUAUGUUGCUAUAUAAGGCCAACAGAGGAUUGAGCAUCA
# B16: chr3:102851058:102851059:+_ENSMUSG00000068823_ENSMUST00000029446|mus_mus|FALSE|FALSE (ssRNA)
# RNA: GGGAGUUCUACAGUCCGACGAUCGCCAUCUUCUGCCUCCUUGUCUUUGCCUUUAUUUGGGCUUGUAGUUUUAGGAUUGGAAAAAGUGGCUUCUUUUUCUACGGUGCCCAGAAAACGAUGAUCUGAAUGGGAAUGGAAUGAAACCAACAGAGGAUUGAGCAUCA
# B17: 28706049_28706169_187_CDS_ENSG00000108582_ENST00000225719|human|control|control (ssRNA)
# RNA: GGGAGUUCUACAGUCCGACGAUCGCGGUCGAACUGGCCCUCGGCCGCCUCGGCGCCCGCGCUCGUAGUUGUGGUAGUCGCCUCCGCCUUCUUGAUGUGAGCCGCCCGGGCCGAGCUCCCCAGCAGCAGCAGGCACAUGAGCAACAACAGAGGAUUGAGCAUCA
# B18: 90049698_90049818_86_3pUTR_ENSG00000070961_ENST00000261173|human|control|control (ssRNA)
# RNA: GGGAGUUCUACAGUCCGACGAUCAAAAGAAUUUAAUUUUCACUUGAUGUAUUUCCAAGAUGAAAAUCUUUUAAGUAUGAAAAUCUUUCUUAAACCAAACACUCAUUGUAUGACUUUGUAAAGCAGCAUCAGCAGCAACAUUUCCAACAGAGGAUUGAGCAUCA
# B19: 158643113_158646124_607_CDS_ENSMUSG00000027655_ENSMUST00000109478|mouse|control|control (ssRNA)
# RNA: GGGAGUUCUACAGUCCGACGAUCAAUCUUCUUCAGCAAGCCAAUGGCAAUGUCCGUGUACAAGGUCCUCUCGUGGGCUUCAUCCAGCAUGAUGACACUAUAUUUUGUUAACAGCGGAUCCACCAUCAUUUCUCUGACCAGCAUCAACAGAGGAUUGAGCAUCA
# B20: chr17:42882304:42882305:-_ENSG00000182963_ENST00000426548|hu_hu|FALSE|FALSE (ssRNA)
# RNA: GGGAGUUCUACAGUCCGACGAUCCUUGUAGGCGAUCUUAGCAUUGGACAGUUCGGUGUACUGGAUUUGAUCUGGUUUGACAGCAAUGUUAUAGCCAGGGGGAGCAGAUGGUGUAUUCCAAGUGAAAGGAUAAUUAUAAGCACCCAACAGAGGAUUGAGCAUCA
# B21: 32201165_32260576_2418_3pUTR_ENSMUSG00000029765_ENSMUST00000115096|mouse|control|control (ssRNA)
# RNA: GGGAGUUCUACAGUCCGACGAUCUAAGCUGCCUUUCUGACAUGAUGUAGAGUUGCUCGUGGUCCUUGGAAAAGGCCAUGUCCCGGAGGACUGGUCCUGAGUCCACCACCUGCACAGUCUCAUAUUGGAGGGCAUUUCCCUUGGCAACAGAGGAUUGAGCAUCA
# B22: chr2:32089778:32089779:+_ENSMUSG00000039262_ENSMUST00000036691|mus_hu|FALSE|FALSE (ssRNA)
# RNA: GGGAGUUCUACAGUCCGACGAUCUAAACAAGCUGCACAUUACACCUCUAGCCAUCGUCUGCCCUUUCAAAUAUCUGGUCUACAUGGAAAGACAAAGAGGAAAGGCCAAAACAUAAACAAAAGGAAACAAAAACAAAACACAACCAACAGAGGAUUGAGCAUCA
# Biological target: T1, UNK ZnF1-3
# Experiment: nsRBNS (natural sequence RNA bind-n-seq); RBNS binding buffer (assumed for nsRBNS): 25 mM Tris pH 7.5, 150 mM KCl, 3 mM MgCl2, 0.01% Triton X-100, 500 ug/ml BSA, 20 U/ml SUPERase-In, 4 C; UNK is unkempt and MSI1 is Musashi-1; names of the RNAs are library labels; protein concentration not given here; high values mean tight binding
row,Binder,binding signal [enrichment R]
1,B1,0.529
2,B2,0.554
3,B3,0.849
4,B4,2.06
5,B5,1.2
6,B6,1.47
7,B7,0.784
8,B8,1.21
9,B9,1.24
10,B10,0.759
11,B11,0.618
12,B12,0.94
13,B13,1.39
14,B14,0.856
15,B15,2.48
16,B16,0.901
17,B17,1.03
18,B18,1.01
19,B19,0.993
20,B20,1.2
21,B21,0.795
22,B22,2.59
